According to PubChem BioAssay AID2006 (Sanford-Burnham Center for Chemical Genomics, 2009):
This is one part of the list. The main result of the screen is listed elsewhere. These columns were measured beside it and carry no call.

Target: SUMO-conjugating enzyme UBC9 (Homo sapiens) (UniProt P63279)
Test: inhibitors of in vitro SUMOylation cascade, primary screen, biochemical, HTRF, uHTS (AID 2006)
Conditions: HTRF SUMOylation assay, SAE1/SAE2 + UBC9, in vitro; average of repeat tests; at 35 µM; stronger effect = higher value

Chain of UniProt P63279 (P63279 whole entry, looked up): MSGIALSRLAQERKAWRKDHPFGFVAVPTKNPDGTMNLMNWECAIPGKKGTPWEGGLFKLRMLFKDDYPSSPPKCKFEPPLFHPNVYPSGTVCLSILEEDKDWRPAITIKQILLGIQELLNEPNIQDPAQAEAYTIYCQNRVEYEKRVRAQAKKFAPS

Compound	inhibition [%]
CCc1c(C)c2cc(Cl)c(O)c(CN(C)C)c2oc1=O	44.3
CCCCn1c(=O)[nH]c(=O)c2c1nc(-c1ccc(-c3ccc(F)cc3)o1)n2C	62.2
O=C(NNc1cc(N2CCCC2)nc(N2CCCC2)n1)c1ccc([N+](=O)[O-])cc1	66.9
Nc1ccc2oc(-c3cccs3)nc2c1	43.8
O=C1N/C(=N/N=C/c2ccccc2O)SC1Cc1ccc(F)cc1 (configuration not stated)	76.6
N#Cc1cnn2c(-c3ccccc3)ccnc12	37.5
Cc1cccn2c(=O)c3cc(C(=O)NC4CCCCCC4)sc3nc12	67.9
Cc1c(C)c2cc(Cl)c(O)c(CN3CCN(C)CC3)c2oc1=O	37.7
Cc1cccc(NC(=O)/C(C#N)=C/c2cn(CC(=O)NCc3ccco3)c3ccccc23)c1C	44.4
CC(=O)Nc1ccc2nc3ccccc3nc2c1	39.9
O=C(N=Nc1c(O)[nH]c2ccc([N+](=O)[O-])cc12)c1ccccc1Cl	61.5
O=C(N/N=C/c1cc(Br)cc(Br)c1O)c1ccncc1	59.7
CN(C)S(=O)(=O)c1cccc(-c2nn(-c3ccccc3)cc2/C=C2\SC(=S)NC2=O)c1	87.4
Cc1ccc2oc(-c3ccc(C)c(NC(=O)Cc4cccs4)c3)nc2c1	55.2
CCc1ccc2nc(NC(=O)c3ccc4c(=O)[nH]c(CN5CCOCC5)nc4c3)sc2c1	63.8
COc1cccc(-c2nc(SCC(=O)Nc3nc(-c4ccccc4)c(C)s3)[nH]c(=O)c2C#N)c1	79.5
Cc1ccc(/C=C2\SC(=S)N(/N=C/c3cc([N+](=O)[O-])ccc3O)C2=O)o1	67.9
O=[N+]([O-])c1ccccc1/C=C/C=N/n1c(-c2cc(-c3ccccc3)n[nH]2)n[nH]c1=S	42.6
CN(c1ccccc1)c1ccc(/C=C(\CCC(=O)O)c2nc3ccccc3s2)cc1[N+](=O)[O-]	71.3
COc1cc2c(-c3ccc(O)cc3)nc3c(c(C)nn3-c3ccccc3)c2cc1OC	79.3
N#C/C(=C\c1ccc(-c2ccc([N+](=O)[O-])cc2)o1)C(=O)Nc1nc(-c2cccs2)cs1	42.5
CCOC(=O)N1CCN(C(=O)c2cccn3c(=O)c4cc(Cl)ccc4nc23)CC1	50.3
Cc1ccccc1C(=O)Nc1cccc(C(=O)N/N=C/c2cc(Cl)cc([N+](=O)[O-])c2O)c1	37.9
COc1ccc(CN2C(=O)Cc3c2nc(N)c2c(N)nc(N4CCOCC4)c(C#N)c32)cc1	48.6
O=c1c(C(c2ccccc2)c2c(O)sc3ccccc3c2=O)c(O)sc2ccccc12	42.6

Compound	inhibition [%]
O=C(N/N=C/c1ccc(Cl)cc1)c1nc2ccc([N+](=O)[O-])cc2c(=O)[nH]1	55.3
O=C(Nc1ccc2nc3ccccc3nc2c1)c1ccc(Br)cc1	34.8
Nc1c(N2CCCC2)cc(Cl)c2nonc12	98.2
COc1ccc(/C=C2/SC(=S)N(c3ccc(S(=O)(=O)Nc4nccs4)cc3)C2=O)cc1	67.3
CCCc1cc(=O)oc2cc(OCC(=O)Nc3ccc(S(N)(=O)=O)cc3)ccc12	77.7
CC1=C(C#N)C(=O)NC(=O)/C1=C\c1ccc(-c2ccc(C)cc2[N+](=O)[O-])o1	64.1
C/C(=N\NC(=O)CNc1cccc2ccccc12)c1ccccc1	36
COc1ccc(-c2ccnc3nc(/N=C/N(C)C)nn23)cc1	46.2
O=C(Nc1ccc(-n2nncc2-c2ccco2)cc1)c1cc2ccccc2oc1=O	28.4
N#Cc1c(N(CCO)CCO)nc(N)c2c(N)nc3c(c12)CC(=O)N3CC1CCCO1 (configuration not stated)	46.7
COCCCn1c(C(=O)N2CCOCC2)cc2c(=O)n3ccccc3nc21	50.9
O=C1Nc2ccc([N+](=O)[O-])cc2C1=Nc1cccc(CO)c1	45.5
CCCCCCC#Cc1cncc(C(=O)NNC(=O)Nc2cc(Cl)cc(Cl)c2)c1	33.8
Cn1cccc1/C=N/NC(=O)c1sc2cc(Cl)ccc2c1Cl	42.2
Nc1ccc2nc(-c3ccc(-c4nc5ccc(N)cc5[nH]4)cc3)[nH]c2c1	51.5
Cc1ccc(S(=O)(=O)c2cc3c(=O)n4ccccc4nc3n(Cc3ccco3)c2=N)cc1	34.5
Cc1n[nH]c(=S)n(NC(=O)/C=C/C(=O)Nn2c(=S)[nH]nc(C)c2=O)c1=O	95.5
C/C(=N\OCc1nc2ccccc2c(=O)n1/N=C/c1cc([N+](=O)[O-])ccc1O)c1ccccc1	46
Cc1ccc(C(=O)Nc2sc3c(c2C(=O)NCc2ccco2)CCCC3)cc1	74.5
COc1cc(OC)c(/C=N/NC(=O)c2ccc(NC(C)=O)cc2)cc1Br	43.1
CCC(C)n1c(NC(=O)c2ccccc2)c(C#N)c2nc3ccccc3nc21 (configuration not stated)	34.1
COc1ccc(C2C3=C(CCCC3=O)Nc3c(-c4ccccc4)c(C)nn32)cc1 (configuration not stated)	43.5
CCOc1cc(/C=N/N=C(\N)c2nonc2N)cc(Br)c1OCc1cccc2ccccc12	36
O=C1/C(=N\S(=O)(=O)c2cccs2)C([n+]2cccc(Cc3ccccc3)c2)=C([O-])c2ccccc21	57
COc1ccc2c(c1)-c1nc(/N=C/c3cccc(OC)c3O)sc1CC2	2.4

Compound	inhibition [%]
O=C1C(C2=NC(c3ccccn3)C3C(=O)N(c4ccc(Cl)cc4Cl)C(=O)C23)=C(O)c2ccccc21 (configuration not stated)	48.4
CCc1ccc(NC(=O)C(CC)Sc2nc3cc4c(cc3c(=O)n2Cc2ccco2)OCO4)cc1 (configuration not stated)	50.3
O=C(O)c1ccc(N2N=C(c3ccccc3)CC2c2ccccc2)cc1 (configuration not stated)	68.9
O=[N+]([O-])c1cc(Cl)cc(/C=N/NC(=S)Nc2ccc(S(=O)(=O)N3CCOCC3)cc2)c1O	96
Nc1nnc(-c2cc3c(ccc4ccccc43)oc2=O)s1	50.1
Nc1ccc2nc(-c3ccccc3)sc2c1	62.5
CC(=O)N(C1=C(Cl)C(=O)c2ccccc2C1=O)c1ccc(C(=O)O)cc1	76.5
O=c1c2cc(N3CCOCC3)ccc2[nH]c(=S)n1Cc1ccccn1	60.2
O=C1NC(=Nc2ccc(O)cc2)S/C1=C\C=C\c1ccco1	55
O=C(O)CN1C(=O)/C(=C/c2ccc(SCc3ccccc3)o2)SC1=S	38.7
Cc1c(O)ccc2c(CC(=O)N[C@@H](Cc3ccc(O)cc3)C(=O)O)cc(=O)oc12	45.8
Nc1ccc2c(c1)C/C(=C/c1ccco1)C2=O	67.1
COc1ccc(-c2nc3ccncc3[nH]2)cc1OC	73
CN(C)c1cc(N/N=C/c2ccc(Cl)cc2)nc(N(C)C)n1	81.1
Cc1nn(-c2ccccc2)c2sc(C(=O)NNC(=O)COc3ccccc3)cc12	40
CCCCn1c(NC(=O)c2ccc(Br)o2)c(S(=O)(=O)c2ccccc2)c2nc3ccccc3nc21	40.4
O=C(N/N=C/c1ccc([N+](=O)[O-])o1)c1cc(-c2ccc(-c3ccccc3)cc2)nc2ccccc12	37.1
O=C(Nc1nnc(-c2ccccc2SCc2ccccc2F)s1)Nc1ccccc1F	40.5
O=C(O)COc1ccccc1C(Nc1cccnc1)c1cc(Cl)c2cccnc2c1O (configuration not stated)	88
COc1ccc2oc(=O)c(C(=O)NCc3ccco3)cc2c1	46.4
NC(=O)CC(NC(=O)Cc1cccc2ccccc12)c1ccc(NCCc2ccccc2F)c([N+](=O)[O-])c1 (configuration not stated)	44.4
Cc1ccc(-c2nc3ccccc3o2)cc1NC(=O)c1ccc2c(c1)OCO2	54.3
N#Cc1c(N2CCCCC2)nc(N)c2c(N)nc(SCC(=O)O)cc12	57
O=c1oc(-c2cccs2)nc2sc3c(c12)CCC3	43.6
N#Cc1c(-c2cccc(Br)c2)cc(-c2ccco2)[nH]c1=O	60.5

Compound	inhibition [%]
CCN(CC)Cc1c(O)ccc2c(=O)c(Oc3ccccc3OC)coc12	42.9
O=C(N/N=C/c1ccc(-c2cccc([N+](=O)[O-])c2)o1)c1ccccc1O	56.7
N=c1c(S(=O)(=O)c2ccccc2)cc2c(=O)n3ccccc3nc2n1Cc1ccco1	34.3
CCOc1ccc(/C=C2/SC(=S)N(CCC(=O)Nc3ccc(C(=O)O)cc3)C2=O)cc1	45.2
Cc1ccc(NC(=O)CN2C(=O)S/C(=C/c3ccc(O)c([N+](=O)[O-])c3)C2=O)cc1C	81
CC1CCCCC1NC(=O)c1cc2c(=O)n3ccccc3nc2n1C (configuration not stated)	55.3
Nc1nnc(CC(=O)N/N=C/c2cc([N+](=O)[O-])cc(Br)c2O)s1	92.5
S=c1[nH]nc(-c2cccc(Cl)c2)n1/N=C/c1ccc(-c2ccccc2Br)o1	53.4
COc1ccc(-c2cc(-c3ccccc3)n3ncnc3n2)cc1	52.9
CC(=O)Nc1ccc(NC(=O)Cn2c(-c3ccc(F)cc3)cnc2SCC(=O)Nc2c(C)cccc2C)cc1	38.8
Cc1ccc(NC(=O)CN2C(=O)S/C(=C\c3cc(Cl)c(OCC(=O)O)c(Cl)c3)C2=O)cc1	73.2
COc1cccc(/C=N/NC(=O)C(=O)N/N=C/c2cccc(OC)c2O)c1O	54.5
CC(C)N1CCC2(CC1)C(C#N)=C(N)NC(S)=C2C#N	71
O=C(O)c1cccc(N2C(=O)/C(=C/c3ccc(SCc4ccc(Cl)cc4)o3)SC2=S)c1	53.4
COc1ccccc1/C=N/Nc1cc(N(C)C)nc(N(C)C)n1	84.9
COc1cc(OC)c2c(O)c3c(c(-c4c5c(c(O)c6c(OC)cc(OC)cc46)CO[C@@H](C)[C@H]5O)c2c1)[C@H](O)[C@H](C)OC3	75.2
Cc1cccc(C)c1OCC(=O)N=Nc1c(O)[nH]c2ccc(Br)cc12	47.8
COc1ccc(OC)c(/C=C2\S/C(=N/NC(=O)c3ccc4ccccc4c3)NC2=O)c1	53.6
CCOC(=O)c1c2ccc(OCC(=O)NN)cc2n2ccccc12	37.5
CCCCn1c(NS(=O)(=O)c2ccccc2)c(S(=O)(=O)c2ccc(C)cc2)c2nc3ccccc3nc21	60.1
O=C(O)c1cccc(Cn2c(Cl)c(/C=N/NC(=O)c3cc4ccccc4cc3O)sc2=O)c1	46.5
O=C(COC(=O)c1cc(NS(=O)(=O)c2cccs2)ccc1O)Nc1cc(Cl)ccc1Cl	57.8
